# Some of the results follow.
# System: PfSIP2 AP2 domain 1 (GST-tagged)
# Assay: gcPBM binding intensity (ln(normalized median fluorescence intensity)); higher = stronger DNA binding
# Procedure, shortened: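 Binding of GST-tagged P. falciparum DNA-binding domains, expressed in E. coli and used at about 25 μg on average, was carried out for 1 h in 1× PBS containing 1% milk, 0.2 mg/ml BSA, 0.5% salmon testes DNA and 0.03% Triton X-100. The target was an Agilent 4 × 180k array of primer-extended double-stranded 36-bp intergenic genomic probes plus negative controls, read with Alexa488 anti-GST antibody at 488 nm. Binding intensity is the highest Masliner-normalised natural-log median intensity across replicate spots of either probe orientation.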
row,Sequence,gcPBM binding intensity (ln)
1,ATATATATATTTATATTTATATGTAAATATCAACGT [TGCATGCA_negctrl_site32],8.59
2,ATTGTGTTAATGAAATGTACATTTTCTCTACGTTAA [XGTACX_site1322],6.89
3,AATATTATGTATAACCGTACATTATATATATAATAA [XGTACX_site1594],6.84
4,TTAAACTTGTTTTGGATGCACTATATAATTCATTTT [GTGCAC_site9549],8.37
5,ATTAAAATAATTTAATTTCTTAGACACAATTTGTAA [GTGCAC_negctrl_site331],6.7
6,GTGTAAAGGTATTATTGTATTATTCAAAATAAAAAA [CACACA_negctrl_site637],7.37
7,TCCTACATATTATAGTGTACATTTTCATGTTCATAT [XGTACX_site4308],7.05
8,AAGTATTATATATTTTGTACATATATAAAACCACAA [XGTACX_site5508],7.13
9,TATATATATATATGTGCACACCAATTGTATGTAATA [CACACA_site3888],9.59
10,TCATAAAAGATTAAGTGTACATGTGCTACTCTTATA [XGTACX_site6255],6.79
11,AATATAAAATCAAGAAATTAAAAAAAAACAGAAAAC [CACACA_negctrl_site1004],7.32
12,ACAAGATAATAGAGAAGTACTAATAAACATACACAA [XGTACX_site6617],6.97
13,TATGTTCCTTTTTGTTGTACTGAAAAATTATGTTCA [XGTACX_site3981],7.28
14,ATAATATAAATTAATTTACACACTAATAAATATATA [CACACA_site9259],6.93
15,ATTTTAAATTTATCTGTGCACAGTATTATATAAGCA [GTGCAC_site9806],8.24
16,TATTTTTTATGATTAACACACACACTAATAAAAAAA [CACACA_site9370],7.43
17,TATATATATATATATAGTACGCACACATAGTTGCAA [XGTACX_site5875],9.25
18,ATTCTTACTAATATCGCACACACATATGTAGACGGG [CACACA_site88],7.08
19,ATTTTTTTATTTTTGTGTACTTATAAGAATATTAAT [XGTACX_site4850],7.41
20,AATGAATATATTTATTGTACATATATGAATATTGCA [XGTACX_site8689],7.05
21,AAAAAAAAAAAAAAAAGTACAAAAAGGAGAAAGATA [XGTACX_site7862],7.55
22,ACCCAGTGTATTCATAGTACACGCTCATATATTATC [XGTACX_site423],6.99

row,Sequence,gcPBM binding intensity (ln)
1,AGGTTTATAAAAAAAAAAAAAAAAAAAAAAAAAAAA [GTGCAC_negctrl_site113],7
2,AATATTTAAAACATATGTACTGAAAAACAATTGGAC [XGTACX_site6360],7.33
3,CACAAAGGTCTGAAATTTTAGGGGTGCCTGGGACTA [CACACA_negctrl_site681],8.32
4,AACAAGTTGCATGGTGCACACATGTATATATATCTA [CACACA_site2548],11.6
5,AAAATGTATGTAGTCTGTACAAATACTCTATAAATA [XGTACX_site6475],6.87
6,TACAATTTTACTCATAAACACACATATATATGTTAT [CACACA_site9031],7.05
7,TTATACCTATATTTAACACACATTTGATAAAGTGCC [CACACA_site6732],6.83
8,AAAAAATTTGTTTATTGTACAGAAAGAATTATTATA [XGTACX_site6549],7.04
9,TTGTAGGTAAATATGTGTACGCATTATTATTCTTAA [XGTACX_site216],7.61
10,GAGAGAGAAATAAAAAGTACATACATATATATACAT [XGTACX_site2267],6.91
11,TGGAGATTTTTAAAGACACACAGGTAAGAATAATAA [CACACA_site1582],6.99
12,ACCATTTTTATGTATAAACACACGTACCCGCACTAA [CACACA_site1604],8.11
13,AAAAAAAACAGACACATACACACAAAAATGTTATAA [CACACA_site82],6.84
14,AATATATAAATTGACACACACATATATACCTATATA [CACACA_site4803],7.04
15,AATATAAACACAAACACACACATATAGATTTATATA [CACACA_site6263],6.99
16,CACAATGGTTTATATACACACTGTTGCAAATTCTTC [CACACA_site5659],6.92
17,ATTATGCACGGACACACACACACACCCCTAAAAAAT [CACACA_site5426],7.88
18,TGTTAACCACAAAAATAAAATAAAATAAAAATAATA [XGTACX_negctrl_site535],6.89
19,TGATAAATATTATGTTGTACTTTCTGCCCTTCACAT [XGTACX_site5168],7.09
20,TTTCCCATAGGAAAAACACACATATATTATAGATAA [CACACA_site7019],6.91
21,TATGCTATTATATATGTACACACCAATTTATTTATA [CACACA_site3918],7.23
22,GAGAGAGAAATATGCACACATAAGGGAAATAAATAA [CACACA_site1153],7.48

# Reference: the supplement of paper PMC11417369
